# Reference: PubChem BioAssay AID1468 (National Center for Advancing Translational Sciences (NCATS), 2008)
# Hit rate of the full screen: of about 280,000 compounds, about 1,100 (0.39%) were called active. This list was built around the results that the source calls inconclusive (neither active nor inactive); the mix of calls is not that of the screen. Calls come from the whole dose curve; as a rule, active = well fitted inhibition curve with a large enough effect; inconclusive = small, poorly fitted or top-dose-only effect, or effect the other way; inactive = flat fitted curve, though single readings scatter. No potency is given beside an inconclusive call; the fits are too rough.
# Biological target: Microtubule-associated protein tau (Homo sapiens) (UniProt P10636)
# Assay: qHTS for Inhibitors of Tau Fibril Formation, Fluorescence Polarization; note: nearly all actives have a fitted effect of over 55% in size
# Settings: K18 P301L tau heparin fibrillization, Alexa594 FP, 6 h; series mostly up to 57.7 µM; activity, negative = inhibition: at the top concentration
# Procedure, shortened: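 K18 P301L tau (15 uM unlabeled/0.24 uM Alexa 594-labeled, final) + compound + heparin 20 uM final; 100 mM NaOAc pH 7; 6 hr 37 C; ThT 30 uM final added, 1 hr RT; FP ex 555/em 632 nm.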
# % is set by controls: 0 for no effect and ±100 for the full control effect; potency is the fitted concentration of half-maximal effect; tags give direction and shape of the fitted curve.
# Sequence of UniProt P10636 (P10636 whole entry, looked up): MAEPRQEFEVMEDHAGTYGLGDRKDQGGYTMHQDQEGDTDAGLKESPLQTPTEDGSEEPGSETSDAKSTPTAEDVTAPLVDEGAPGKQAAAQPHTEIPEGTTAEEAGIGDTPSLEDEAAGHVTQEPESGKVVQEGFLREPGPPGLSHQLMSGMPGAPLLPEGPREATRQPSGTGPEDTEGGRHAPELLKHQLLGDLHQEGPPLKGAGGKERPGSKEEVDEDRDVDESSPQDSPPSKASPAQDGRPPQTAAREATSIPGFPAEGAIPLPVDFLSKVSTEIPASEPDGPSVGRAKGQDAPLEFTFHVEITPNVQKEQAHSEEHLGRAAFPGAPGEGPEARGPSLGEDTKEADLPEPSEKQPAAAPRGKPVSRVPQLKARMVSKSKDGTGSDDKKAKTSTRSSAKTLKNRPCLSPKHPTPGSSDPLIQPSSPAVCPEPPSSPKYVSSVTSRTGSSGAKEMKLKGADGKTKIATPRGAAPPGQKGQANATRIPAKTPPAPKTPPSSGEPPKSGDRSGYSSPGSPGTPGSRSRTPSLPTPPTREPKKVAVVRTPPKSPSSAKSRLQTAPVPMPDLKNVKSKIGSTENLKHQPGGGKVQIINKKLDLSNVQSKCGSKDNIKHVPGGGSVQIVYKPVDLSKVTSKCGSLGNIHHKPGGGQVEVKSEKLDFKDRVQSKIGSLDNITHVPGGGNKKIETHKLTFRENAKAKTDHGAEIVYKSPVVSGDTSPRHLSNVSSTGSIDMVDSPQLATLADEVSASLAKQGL
Structure (SMILES),Potency,"activity, negative = inhibition"
CC(C)c1ccc(S(=O)(=O)c2cn(CC(=O)Nc3ccc(F)cc3)c3ccccc3c2=O)cc1,"inconclusive [inhibitor, single point]",–
C=C(Br)Cn1c(CC(C)C)nc2ccccc21,–,inactive: -2.88%
Cc1cc(C)n2nc(-c3ccsc3-n3c(C)ccc3C)cc2n1,–,inactive: -0.738%
COc1ccc(S(=O)(=O)Nc2ccc(F)c(Cl)c2)cc1OC,–,inactive: -1.18%
CCN(CC)CCn1c(=N)n(CCOc2ccccc2Cl)c2ccccc21,"inconclusive [inhibitor, single point]",–
COc1ccc(C2=C(C)C(=O)N(Cc3ccc(C(=O)Nc4ccc(F)cc4C)cc3)S2(=O)=O)cc1,"inconclusive [inhibitor, single point]",–
O=C(CCC1CCCCC1)NNC(=O)NC12CC3CC(CC(C3)C1)C2,"inconclusive [activator, single point]",–
O=C(Oc1ccc(N(Cc2cccs2)C2=NS(=O)(=O)c3ccccc32)cc1)c1ccc(Cl)cc1,"inconclusive [inhibitor, single point]",–
Cc1ccc2nc(-c3cccc(NC(=O)c4cccc5c(Cl)cccc45)c3)oc2c1,"inconclusive [inhibitor, single point]",–
CC(C)(C)NC(=O)C(c1ccc(F)cc1)N(Cc1ccco1)C(=O)Cn1nnc(-c2cccs2)n1 (configuration not stated),"inconclusive [inhibitor, full curve, poor fit]",–
COc1cc(NC(=O)c2cc(C)on2)cc(C(=O)Nc2cccc(C(F)(F)F)c2)c1,"inconclusive [inhibitor, partial curve]",–
COc1ccc(NC(=O)c2ccccc2C(=O)N2CCCCC2)cc1,–,inactive: 2.85%
COc1cc(CSc2ncc(CO)n2Cc2ccc(C)cc2)cc(OC)c1,–,inactive: -8.59%
COC(=O)c1ccc(NC(=S)NCCc2cccc(C)c2)cc1,"inconclusive [inhibitor, partial curve, poor fit]",–
O=C(NCCC1=CCCCC1)C1CCN(C(=O)N2CCOc3ccccc32)CC1,"inconclusive [activator, full curve]",–
Cc1cc(=O)[nH]c(SCC(=O)N2CCN(S(=O)(=O)c3ccccc3)C2)n1,"inconclusive [inhibitor, single point]",–
O=C(CNC1CCCCC1)N1CCc2ccccc2C1,"inconclusive [inhibitor, single point]",–
Cc1c(Cl)cccc1NC(=O)CSc1nc(=O)[nH]c2c1CCCC2,"inconclusive [inhibitor, single point]",–
O=C(/C=C/c1ccccc1Cl)Nc1ccc(-c2nnc3n2CCCCC3)cc1,"inconclusive [inhibitor, single point]",–
OCC1OC(c2ccccc2)C=CC1Oc1cc(Cl)cc(Cl)c1 (configuration not stated),–,inactive: 0.618% [at 11.6 µM]
CCC(Sc1nc2cc(OC)c(OC)cc2c(=O)n1Cc1ccc(OC)cc1)C(=O)NCCOC (configuration not stated),"inconclusive [inhibitor, partial curve, poor fit]",–
Cc1cccc(CSc2ncnc3ccccc23)c1,–,inactive: -16.6%
O=C(NNc1ccccc1)C(=O)NNS(=O)(=O)c1ccc([N+](=O)[O-])cc1,–,inactive: 1.42%
O=C(COc1cccc(C(F)(F)F)c1)N1CCN(c2ccccc2O)CC1,–,inactive: 9.24%

Structure (SMILES),Potency,"activity, negative = inhibition"
Cc1cc2cc(CNC(=O)c3ccc(S(=O)(=O)N4CCCCC4)cc3)ccc2n1C,"inconclusive [inhibitor, single point]",–
Cc1ccc(C(C)C)c(OCc2ccc(C(=O)N/N=C/c3ccc(O)c(O)c3)cc2)c1,–,inactive: 2.31%
Cc1nnn(C23CC4CC(CC(C(=O)NN)(C4)C2)C3)n1,–,inactive: -3.04%
COCCN=C1NN=C(c2ccc(NC(C)=O)cc2)CS1,"inconclusive [inhibitor, single point]",–
COc1ccc(C(=O)NCC(c2ccc(N(C)C)cc2)N2CCCC2)c(OC)c1 (configuration not stated),–,inactive: 3.76%
O=c1[nH]nc(N/N=C/c2ccc(Cl)cc2Cl)c(=O)[nH]1,–,inactive: -1.41%
CCc1ccc(C2Sc3ccccc3NC3=C2C(=O)c2ccccc23)cc1 (configuration not stated),"inconclusive [inhibitor, partial curve]",–
COc1cccc(C2C(C(=O)c3cccs3)=C(O)C(=O)N2CCN(C)C)c1OC (configuration not stated),–,inactive: -0.297%
CC/C=C\C/C=C\C/C=C\C/C=C\C/C=C\C/C=C\CCC(=O)O,"inconclusive [inhibitor, partial curve]",–
CC(=O)c1cccc(Nc2ccc3cc(S(=O)(=O)N4CCC(C)CC4)ccc3n2)c1,active: 12.6 µM,–
Cc1ccc(Nc2nc(N)nc(CN3CCN(C(=O)c4ccco4)CC3)n2)cc1Cl,–,inactive: -6.04%
CCC1c2ccc(C)n2CCN1C(=O)Nc1ccccc1OC (configuration not stated),"inconclusive [inhibitor, single point]",–
CC(=O)c1ccc(NS(=O)(=O)c2cc(-c3cc(C)no3)ccc2C)cc1,–,inactive: -14.2%
NC(=O)c1sc2nc(-c3ccccc3)c3c(c2c1N)CCCC3,–,inactive: 2.5%
COc1ccc(-c2cc3ccccc3c(=O)o2)cc1,"inconclusive [inhibitor, single point]",–
S=C(N=Nc1ccccc1)NNc1ccccc1,"inconclusive [inhibitor, single point]",–
CC(=O)c1c(C)[nH]c(C(=O)Nc2nc(-c3ccc(-c4ccccc4)cc3)cs2)c1C,active: 39.8 µM,–
c1ccc(-c2nccc(-c3ccc(-n4cnc5ccccc54)cc3)n2)cc1,"inconclusive [inhibitor, partial curve, poor fit]",–
CCN(CC)S(=O)(=O)c1ccc(C(=O)/C=C/c2ccc(-c3ccc([N+](=O)[O-])cc3)o2)cc1,–,inactive: 8.6%
CCC12CN3CC(C)(CN(C1)C3c1c[nH]c3ccccc13)C2=O (configuration not stated),–,inactive: 3.08%
CC1CCN(c2ncnc3c2cnn3-c2ccccc2)CC1,–,inactive: 0.517%
COc1ccc(/C=C\c2onc(C)c2S(=O)(=O)N2CCC(C(=O)Nc3ccc(C)cc3C)CC2)cc1,"inconclusive [inhibitor, partial curve]",–
O=C(CC1C(=O)NCCN1Cc1ccc(F)cc1)NCCN1CCCc2ccccc21 (configuration not stated),"inconclusive [inhibitor, single point]",–
